According to article PMC8222345:
Results are given in words; binding and its absence hold for the method and conditions named. Where a sequence is shown, tags or fusion partners need not be part of it.

Chains of the proteins cited; added tags and fusions are not shown.
UniProt O75838: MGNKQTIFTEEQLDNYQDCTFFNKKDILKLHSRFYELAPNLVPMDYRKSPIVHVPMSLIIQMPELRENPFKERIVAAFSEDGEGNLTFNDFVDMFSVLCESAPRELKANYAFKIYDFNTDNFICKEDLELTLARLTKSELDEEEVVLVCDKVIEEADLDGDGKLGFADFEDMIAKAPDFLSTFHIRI

Target: GFP-hCIB2 (calcium and integrin binding protein 2) (human) (UniProt O75838)
Test: nanoscale pulldown 2.0 (NanoSPD); COS-7 cells transfected with 1 µg each of nanoTRAP (myo10 HMM-GFP nanobody), GFP-tagged bait and prey; co-accumulation of the prey with the bait at filopodia tips in fixed cells, confocal microscopy, prey/bait fluorescence ratio

- binding: no binding
B1: FLAG-tagged TSC1 (protein, UniProt Q92574 1-1164)
chain: MAQQANVGELLAMLDSPMLGVRDDVTAVFKENLNSDRGPMLVNTLVDYYLETSSQPALHILTTLQEPHDKHLLDRINEYVGKAATRLSILSLLGHVIRLQPSWKHKLSQAPLLPSLLKCLKMDTDVVVLTTGVLVLITMLPMIPQSGKQHLLDFFDIFGRLSSWCLKKPGHVAEVYLVHLHASVYALFHRLYGMYPCNFVSFLRSHYSMKENLETFEEVVKPMMEHVRIHPELVTGSKDHELDPRRWKRLETHDVVIECAKISLDPTEASYEDGYSVSHQISARFPHRSADVTTSPYADTQNSYGCATSTPYSTSRLMLLNMPGQLPQTLSSPSTRLITEPPQATLWSPSMVCGMTTPPTSPGNVPPDLSHPYSKVFGTTAGGKGTPLGTPATSPPPAPLCHSDDYVHISLPQATVTPPRKEERMDSARPCLHRQHHLLNDRGSEEPPGSKGSVTLSDLPGFLGDLASEEDSIEKDKEEAAISRELSEITTAEAEPVVPRGGFDSPFYRDSLPGSQRKTHSAASSSQGASVNPEPLHSSLDKLGPDTPKQAFTPIDLPCGSADESPAGDRECQTSLETSIFTPSPCKIPPPTRVGFGSGQPPPYDHLFEVALPKTAHHFVIRKTEELLKKAKGNTEEDGVPSTSPMEVLDRLIQQGADAHSKELNKLPLPSKSVDWTHFGGSPPSDEIRTLRDQLLLLHNQLLYERFKRQQHALRNRRLLRKVIKAAALEEHNAAMKDQLKLQEKDIQMWKVSLQKEQARYNQLQEQRDTMVTKLHSQIRQLQHDREEFYNQSQELQTKLEDCRNMIAELRIELKKANNKVCHTELLLSQVSQKLSNSESVQQQMEFLNRQLLVLGEVNELYLEQLQNKHSDTTKEVEMMKAAYRKELEKNRSHVLQQTQRLDTSQKRILELESHLAKKDHLLLEQKKYLEDVKLQARGQLQAAESRYEAQKRITQVFELEILDLYGRLEKDGLLKKLEEEKAEAAEAAEERLDCCNDGCSDSMVGHNEEASGHNGETKTPRPSSARGSSGSRGGGGSSSSSSELSTPEKPPHQRAGPFSSRWETTMGEASASIPTTVGSLPSSKSFLGMKARELFRNKSESQCDEDGMTSSLSESLKTELGKDLGVEAKIPLNLDGPHPSPPTPDSVGQLHIMDYNETHHEHS
